Data reported in PubChem BioAssay AID504333 (National Center for Advancing Translational Sciences (NCATS), 2011).
In all, about 360,000 compounds went through this assay and about 16,000 (4.4%) were called active. The shares of active, inactive and inconclusive entries below differ from those in the screen. The call rests on the fitted dose curve; in most records, active means well fitted inhibition curve with a large enough effect; inconclusive means small, poorly fitted or top-dose-only effect; inactive means no such curve, though single readings can be large or run the other way. Potencies beside an inconclusive call are fits to weak or partial responses and may not hold up.

Target: Bromodomain adjacent to zinc finger domain protein 2B (Homo sapiens) (UniProt Q9UIF8)
Test: qHTS Assay for Inhibitors of BAZ2B; further: nearly all actives have a fitted effect of over 60% in size
Settings: AlphaScreen BAZ2B-H3K14Ac peptide displacement; activity change, negative = inhibition: at 114 µM (top of the series) unless noted
Method in brief: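 Protein-peptide AlphaScreen: BAZ2B 50 nM, b-H3K14Ac 50 nM, 1x PBS pH 7.4 + 0.01% Tween-20. Preincubation 30 min RT; cpd 30 min RT (top 110 uM); beads 20 min RT, light-protected.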
On the % scale 0 is the no-effect control and ±100 the full control effect; potency means the concentration at half of the fitted maximal effect; tags describe the fitted curve by direction and shape.

Chain of UniProt Q9UIF8 (Q9UIF8 whole entry, looked up, the tested form may be a part): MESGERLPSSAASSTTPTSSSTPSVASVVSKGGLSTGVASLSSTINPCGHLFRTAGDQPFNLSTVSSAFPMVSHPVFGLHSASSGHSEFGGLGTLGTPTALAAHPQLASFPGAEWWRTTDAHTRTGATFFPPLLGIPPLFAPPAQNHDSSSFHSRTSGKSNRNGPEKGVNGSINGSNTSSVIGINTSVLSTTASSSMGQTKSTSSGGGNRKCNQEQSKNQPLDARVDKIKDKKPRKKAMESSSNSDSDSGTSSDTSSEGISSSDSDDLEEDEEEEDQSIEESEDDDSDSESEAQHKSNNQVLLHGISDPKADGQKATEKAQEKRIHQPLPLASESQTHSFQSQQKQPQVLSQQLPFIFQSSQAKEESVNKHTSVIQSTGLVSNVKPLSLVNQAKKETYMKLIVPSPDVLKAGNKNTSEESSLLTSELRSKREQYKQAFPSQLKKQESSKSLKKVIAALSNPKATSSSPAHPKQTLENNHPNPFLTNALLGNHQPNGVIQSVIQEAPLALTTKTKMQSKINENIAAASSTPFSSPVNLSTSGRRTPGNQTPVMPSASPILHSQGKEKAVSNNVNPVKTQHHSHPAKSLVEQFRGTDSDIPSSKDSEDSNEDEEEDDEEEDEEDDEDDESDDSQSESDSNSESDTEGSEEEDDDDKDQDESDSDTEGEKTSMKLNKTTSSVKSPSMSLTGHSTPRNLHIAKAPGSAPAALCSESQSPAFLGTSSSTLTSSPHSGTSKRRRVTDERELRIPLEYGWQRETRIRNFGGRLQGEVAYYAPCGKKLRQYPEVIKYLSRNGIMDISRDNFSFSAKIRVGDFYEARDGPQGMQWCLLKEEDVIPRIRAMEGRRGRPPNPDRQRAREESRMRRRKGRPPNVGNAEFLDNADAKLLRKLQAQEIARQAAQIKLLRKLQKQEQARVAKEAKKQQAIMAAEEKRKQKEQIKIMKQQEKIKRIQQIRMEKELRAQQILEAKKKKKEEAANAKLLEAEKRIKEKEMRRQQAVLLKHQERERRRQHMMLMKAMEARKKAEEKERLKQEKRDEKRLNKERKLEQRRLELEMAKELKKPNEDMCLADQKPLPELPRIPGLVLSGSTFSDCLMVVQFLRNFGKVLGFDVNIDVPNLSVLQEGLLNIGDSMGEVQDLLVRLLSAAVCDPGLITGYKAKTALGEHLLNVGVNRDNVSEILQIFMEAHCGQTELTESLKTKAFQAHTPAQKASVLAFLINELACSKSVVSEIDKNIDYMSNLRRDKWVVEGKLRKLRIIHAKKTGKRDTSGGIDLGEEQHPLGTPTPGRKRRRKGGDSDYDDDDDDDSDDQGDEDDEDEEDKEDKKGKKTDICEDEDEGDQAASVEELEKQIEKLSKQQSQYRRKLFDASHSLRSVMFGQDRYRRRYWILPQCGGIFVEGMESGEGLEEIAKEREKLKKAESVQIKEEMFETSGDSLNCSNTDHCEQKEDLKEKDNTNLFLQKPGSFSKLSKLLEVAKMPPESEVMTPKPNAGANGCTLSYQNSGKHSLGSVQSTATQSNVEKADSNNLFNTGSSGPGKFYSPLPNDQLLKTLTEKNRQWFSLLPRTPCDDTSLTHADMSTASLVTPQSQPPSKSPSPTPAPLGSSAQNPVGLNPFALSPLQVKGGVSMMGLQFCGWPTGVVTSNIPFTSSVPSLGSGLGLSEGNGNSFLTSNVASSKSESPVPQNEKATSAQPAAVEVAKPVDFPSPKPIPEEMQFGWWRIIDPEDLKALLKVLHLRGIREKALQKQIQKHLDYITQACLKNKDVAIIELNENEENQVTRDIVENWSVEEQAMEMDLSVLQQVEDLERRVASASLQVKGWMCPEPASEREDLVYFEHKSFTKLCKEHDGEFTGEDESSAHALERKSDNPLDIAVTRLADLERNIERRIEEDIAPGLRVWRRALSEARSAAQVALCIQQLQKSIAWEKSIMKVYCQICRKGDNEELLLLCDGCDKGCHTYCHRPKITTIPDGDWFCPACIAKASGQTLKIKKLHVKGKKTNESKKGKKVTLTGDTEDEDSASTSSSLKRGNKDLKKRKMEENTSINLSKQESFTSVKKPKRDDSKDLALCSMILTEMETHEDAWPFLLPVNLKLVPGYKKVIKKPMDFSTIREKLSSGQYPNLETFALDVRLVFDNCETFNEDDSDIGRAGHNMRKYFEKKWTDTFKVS

Structure (SMILES)	Potency	activity change, negative = inhibition
Cc1c(C)n(Cc2ccc(Cl)cc2)c2ccc(C(=O)NCCN3CCOCC3)cc12	active: 44.7 µM	
COc1ccc2oc(C(=O)OCC(=O)NC(C)c3ccccc3)c(C)c2c1 (stereo not given)	inconclusive: 79.4 µM [inhibitor, single point]	
Cn1c(=O)[nH]c(=O)c2c1nc(N1CCCCCC1)n2CCCSc1nnnn1-c1ccccc1	inconclusive: 79.4 µM [inhibitor, single point]	
COC(=O)c1ccc(NC(=O)c2nc(-c3ccc(Cl)cc3)n3c2CCCCC3)cc1	inconclusive: 39.8 µM [inhibitor, partial curve]	
Cc1ncc(CO)c(/C=N/Nc2ccc(C(F)(F)F)cn2)c1O	active: 20 µM	
Cc1nc(N2CCC(C)CC2)c2c(C)c(C(=O)Nc3ccc4c(c3)OCCO4)sc2n1	inconclusive: 56.2 µM [inhibitor, partial curve]	
CCc1cccc(NC(=O)CCNS(=O)(=O)c2cccc3nonc23)c1	inconclusive: 31.6 µM [inhibitor, full curve]	
CCCCCCC1(C)NC(=O)N(C(C)C(=O)Nc2ccc(N3CCOCC3)cc2)C1=O (stereo not given)		inactive: 7.16%
COc1ccccc1NC1CCCCC1NS(=O)(=O)c1ccccc1 (stereo not given)	inconclusive: 39.8 µM [inhibitor, partial curve]	
CC1CCC(C(=O)NC(C(=O)N2CCN(c3ccccn3)CC2)C(C)C)CC1 (stereo not given)	inconclusive: 89.1 µM [inhibitor, single point]	
CCOc1ccccc1CNCc1cccn1-c1nnc(N2CCN(c3ccccc3)CC2)s1	inconclusive: 28.2 µM [inhibitor, single point]	
Cc1cccc(/C=N/NC(=O)c2ccc3c(c2)OCCO3)c1O	active: 20 µM	
O=C(O)CCc1ccc(S(=O)(=O)Nc2cc(C(F)(F)F)ccc2N2CCCC2)cc1	active: 79.4 µM	
c1ccc(COc2ccc(OCCCNC3CCCC3)cc2)cc1	active: 44.7 µM	
CCc1ccc(/C=C2\SC(=S)N(CCC(=O)NCCCN3CCOCC3)C2=O)cc1	active: 35.5 µM	
CNC(=S)N(CCc1c(C)[nH]c2ccc(OC)cc12)Cc1cc(OC)c(OC)c(OC)c1	active: 44.7 µM	
CC(C)n1cnc2cc(NCc3nc4ccccc4n3C)ccc21	inconclusive: 79.4 µM [inhibitor, single point]	
Cc1cc(C)n(CC(C)C(=O)O)n1 (stereo not given)	active: 79.4 µM	
COc1ccc(-c2ccc(C(=O)O)o2)c([N+](=O)[O-])c1	inconclusive: 50.1 µM [inhibitor, partial curve]	
O=C1CCCC2=C1C(c1ccccc1)C1C(=O)c3ccccc3C1=N2 (stereo not given)	inconclusive: 22.4 µM [inhibitor, full curve]	
O=C(NC(=S)Nc1ccc(N2CCOCC2)cc1)c1cncc(Br)c1	inconclusive: 44.7 µM [inhibitor, partial curve]	
CCC1=NN2C(=N)/C(=C\c3cccn3-c3ccc(OC)cc3)C(=O)N=C2S1	active: 31.6 µM	
Cc1cc(NC(=S)N(CCCN2CCOCC2)Cc2ccco2)ccc1Cl	inconclusive: 89.1 µM [inhibitor, single point]	
CC(=O)c1nn(-c2ccc(Cl)cc2)c(=O)[nH]c1=O		inactive: 2.7%

Structure (SMILES)	Potency	activity change, negative = inhibition
Nn1cnnc1N/N=C/c1cc(Br)cc(Br)c1O	active: 31.6 µM	
CCCNc1ccc(-c2nc(-c3ccccn3)no2)cc1[N+](=O)[O-]	inconclusive: 89.1 µM [inhibitor, single point]	
C=CCNC(=O)C1CC1(c1ccccc1)c1ccccc1 (stereo not given)		inactive: 0.119%
Cc1cc(C)n2nc(SCC(=O)Nc3c(C)n(C)n(-c4ccccc4)c3=O)nc2n1	inconclusive: 70.8 µM [inhibitor, single point]	
C[C@@H]1C=CC(=O)O[C@@H]1c1ccc(C(F)(F)F)cc1		inactive: 4.86%
CC(=O)c1ccc(-n2c(CCC(=O)O)ccc2-c2ccc(Br)cc2)cc1	inconclusive: 50.1 µM [inhibitor, partial curve]	
COc1ccc(S(=O)(=O)Nc2ccc(-c3cn4c(C)csc4n3)cc2)cc1	inconclusive: 22.4 µM [inhibitor, full curve]	
COc1cc(C2C(C(=O)c3ccco3)=C(O)C(=O)N2CCc2ccccc2)ccc1O (stereo not given)	inconclusive: 89.1 µM [inhibitor, single point]	
O=C(Cn1nc(C(F)(F)F)c2c1CCCC2)Nc1ccc(Br)cc1		inactive: 0.0246%
O=C(CN1C(=O)/C(=C\c2ccco2)SC1=S)Nc1ccc(O)cc1C(=O)O	active: 39.8 µM	
Cc1ccc(N(C(=O)C2CCC(=O)N2)C2(C(=O)NC3CCCCC3)CCCCC2)cc1 (stereo not given)	inconclusive: 89.1 µM [inhibitor, single point]	
CCn1cc(CN2CCCC(C(=O)Nc3cccc(-c4cc5ccccc5[nH]4)c3)C2)cn1 (stereo not given)	inconclusive: 20 µM [inhibitor, partial curve]	
C=CCc1cccc(/C=N/NC(=O)C(=O)Nc2ccc(C)cc2)c1O		inactive: -6.86%
Cc1cc(C)cc(-n2c(C)cc(C(=S)N3CCOCC3)c2C)c1	active: 44.7 µM	
Cc1cccc(C)c1NC(=O)CN(C)C(=O)c1cc(S(=O)(=O)N2CCOCC2)ccc1N1CCCC1	inconclusive: 79.4 µM [inhibitor, single point]	
CCn1c(-c2cc(-c3ccccc3)sc2N)n[nH]c1=S		inactive: -19.6%
Cc1ccc(C)c(NC(=S)NCc2ccc3[nH]c4c(c3c2)CCCC4)c1	active: 31.6 µM	
CCCOc1ccc(S(=O)(=O)N2CCN(C)CC2)c2ccccc12	inconclusive: 79.4 µM [inhibitor, partial curve]	
CCC(c1nnc(SCC(=O)Nc2cc(C)on2)o1)N(C)C (stereo not given)	inconclusive: 89.1 µM [inhibitor, single point]	
COC(=O)c1cc(=O)n(-c2ccccc2)c(=Nc2ccccc2)s1	inconclusive: 39.8 µM [inhibitor, partial curve]	
CC1(C)CC(NC(=O)c2ccccn2)CC(C)(C)N1O	active: 50.1 µM	
CC1Cc2ccccc2N1C(=O)c1ccc(N2CCCC2)c([N+](=O)[O-])c1 (stereo not given)	active: 25.1 µM	
COc1ccc(-c2cc(C(=O)OC(C)C(=O)Nc3c(C)n(C)n(-c4ccccc4)c3=O)c3ccccc3n2)cc1 (stereo not given)		inactive: -2.15%
CC(C)c1ccc(OC(=O)c2cccc(S(=O)(=O)N3CCN(C)CC3)c2)cc1	inconclusive: 56.2 µM [inhibitor, partial curve]	

Structure (SMILES)	Potency	activity change, negative = inhibition
Cc1ccc([N+](=O)[O-])c(OCCN2CCC(Cc3ccccc3)CC2)c1	active: 22.4 µM	
CCCOc1cccc(C2C(C(=O)c3ccc(C)o3)=C(O)C(=O)N2CCN2CCOCC2)c1 (stereo not given)		inactive: -33.5%
COC(=O)[C@@H]1Cc2c([nH]c3ccccc23)C(C)N1C(=O)c1ccccc1 (stereo not given in full)	inconclusive: 79.4 µM [inhibitor, single point]	
Cc1sc(NC(=O)CSc2nc(O)cc(=O)[nH]2)nc1-c1ccccc1	inconclusive: 31.6 µM [inhibitor, partial curve]	
CCOC(=O)CC(=O)CSc1nc2c(c(C)c1C#N)CCC2	inconclusive: 89.1 µM [inhibitor, single point]	
C#CCOCCOCCOCCNc1nc(N2CCN(C(=O)C(Cc3ccc(O)cc3)n3cc(C(N)CC(C)C)nn3)CC2)nc(N2CCN(C(=O)C(Cc3ccc(O)cc3)n3cc(C(N)C(C)CC)nn3)CC2)n1 (stereo not given)	active: 56.2 µM	
CC(C)(O)C(=O)NNC(=S)NCc1ccco1	inconclusive: 89.1 µM [inhibitor, single point]	
O=C(O)c1cccc(N/N=C(\N=Nc2ccccc2)c2ccccc2)c1	active: 14.1 µM	
Cc1ccc(-c2nn(CC(=O)NN3CCOCC3)c(=O)c3ccccc23)cc1		inactive: 0.162%
CC1Cc2cc(/C(O)=C3/C(=O)C(=O)N(Cc4ccncc4)C3c3ccc(N(C)C)cc3)ccc2O1 (stereo not given)	inconclusive: 50.1 µM [inhibitor, partial curve]	
CN(C)CCNC(=O)C1CCN(Cc2cc3ccccc3n2Cc2ccccc2)CC1	inconclusive: 79.4 µM [inhibitor, partial curve]	
CSc1nc(S(=O)(=O)c2ccccc2)c(Cl)s1	inconclusive: 89.1 µM [inhibitor, single point]	
COc1ccc(N2CCN(C(=O)CCCC(=O)c3ccccc3)CC2)cc1	inconclusive: 50.1 µM [inhibitor, partial curve]	
NNC(=O)c1oc2nc(-c3ccc(Cl)cc3)cc(-c3ccccc3)c2c1N	inconclusive: 79.4 µM [inhibitor, single point]	
Cc1cc(C(=O)COC(=O)c2ccccc2NCCO)c(C)n1CC1CCCO1 (stereo not given)	inconclusive: 50.1 µM [inhibitor, partial curve]	
Cc1ccc2oc(Nc3nc(C)c(C)c(C)n3)nc2c1		inactive: -9.37%
COc1ccc(N2CCN(CCCNC(=O)c3ccc(CS(=O)(=O)c4ccc(OC)cc4)o3)CC2)cc1	inconclusive: 28.2 µM [inhibitor, full curve]	
Cc1ccc(-c2nn(-c3ccccc3)cc2/C=C2\SC(=S)N(CCCCCC(=O)O)C2=O)o1	active: 6.31 µM	
Cc1ccc(S(=O)(=O)Nn2c(C)ccc2C)cc1	inconclusive: 100 µM [inhibitor, single point]	
Fc1ccccc1/C=N/n1c(COc2ccccc2)n[nH]c1=S	inconclusive: 70.8 µM [inhibitor, partial curve]	
CCN1CCN(CCNC(=O)c2ccc3nc(-c4cccc(C)c4)c(-c4cccc(C)c4)nc3c2)CC1	inconclusive: 2.24 µM [inhibitor, full curve, poor fit]	
COc1ccc(C2C(C#N)=C(SC)NC3=C2C(=O)CC(C)(C)C3)cc1 (stereo not given)		inactive: 3.99%
